Data reported in publication PMC4336329 (PLoS ONE, 2015).
About 14,000 (4.5%) of roughly 310,000 compounds showed an effect of 50% or more. Effects have a minus sign here. The list shows a part of the results.

Biological target: human ether-à-go-go-related gene (hERG) potassium channel (human, UniProt Q12809)
Experiment: primary screen, population patch clamp on CHO cells stably expressing hERG
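Further: peak tail current of the secondary pulse compared with the same well before compound.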

human ether-à-go-go-related gene (hERG) potassium channel, sequence (Q12809 whole entry, looked up): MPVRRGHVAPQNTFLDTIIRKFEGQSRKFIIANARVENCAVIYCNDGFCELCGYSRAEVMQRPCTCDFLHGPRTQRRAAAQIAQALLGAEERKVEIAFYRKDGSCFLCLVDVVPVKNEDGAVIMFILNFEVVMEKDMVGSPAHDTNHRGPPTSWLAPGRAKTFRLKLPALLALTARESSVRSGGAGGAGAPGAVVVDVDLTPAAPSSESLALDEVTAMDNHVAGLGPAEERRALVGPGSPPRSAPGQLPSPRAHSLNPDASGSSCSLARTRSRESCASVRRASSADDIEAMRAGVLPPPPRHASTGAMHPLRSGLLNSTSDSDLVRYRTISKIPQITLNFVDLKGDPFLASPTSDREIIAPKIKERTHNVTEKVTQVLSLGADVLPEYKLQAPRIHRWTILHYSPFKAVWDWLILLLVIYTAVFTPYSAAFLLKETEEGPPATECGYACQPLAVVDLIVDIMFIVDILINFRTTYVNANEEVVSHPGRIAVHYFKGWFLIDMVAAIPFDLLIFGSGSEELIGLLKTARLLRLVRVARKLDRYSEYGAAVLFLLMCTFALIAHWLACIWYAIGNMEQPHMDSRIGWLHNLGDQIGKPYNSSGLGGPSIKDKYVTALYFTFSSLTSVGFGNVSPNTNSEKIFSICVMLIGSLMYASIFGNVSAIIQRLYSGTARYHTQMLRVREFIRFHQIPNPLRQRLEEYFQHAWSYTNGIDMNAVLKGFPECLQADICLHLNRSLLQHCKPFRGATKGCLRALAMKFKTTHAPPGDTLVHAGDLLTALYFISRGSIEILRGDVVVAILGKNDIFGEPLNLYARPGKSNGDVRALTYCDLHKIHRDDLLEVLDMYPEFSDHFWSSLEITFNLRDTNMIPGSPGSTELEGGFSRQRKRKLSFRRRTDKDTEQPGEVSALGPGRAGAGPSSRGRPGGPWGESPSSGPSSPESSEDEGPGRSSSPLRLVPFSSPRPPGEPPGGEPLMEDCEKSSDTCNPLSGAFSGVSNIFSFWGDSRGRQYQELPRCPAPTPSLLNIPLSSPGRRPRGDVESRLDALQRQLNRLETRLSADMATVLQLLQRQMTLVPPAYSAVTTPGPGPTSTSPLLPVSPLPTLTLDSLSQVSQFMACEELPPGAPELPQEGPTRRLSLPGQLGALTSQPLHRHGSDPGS

Row | Compound | hERG current change (%, negative = inhibition) at 10uM
1 | CCCCOc1cccc(C(=O)NC(=S)Nc2cccnc2)c1 | -7.19%
2 | NC(=O)CSc1nnc(-c2cc3ccccc3o2)n1Cc1ccccc1 | -7.16%
3 | Cc1nc2c(-c3ccccc3)cnn2c(N2CCOCC2)c1C | 11.8%
4 | Cc1cccc(NC(=O)c2cnn(-c3ccc(F)cc3)c2C2CCNCC2)c1C.Cl | -9.71%
5 | O=C1N/C(=N\N=C\c2ccc3ncccc3c2)SC1Cc1ccc(SC(F)F)cc1 (stereo not shown) | 8.42%
6 | CCOc1cc(C(=O)Oc2cc(C)[nH]c(=O)c2[N+](=O)[O-])cc(OCC)c1OCC | 21.5%
7 | Cc1c(Cl)c(-c2n[nH]c(=S)n2CC(C)C)nn1C | 20%
8 | CCc1noc(C)c1C(=O)Oc1ccc(N(C)S(=O)(=O)c2ccc(C)c(C)c2)cc1 | 11.4%
9 | O=C(Nc1ccc(O)cc1)C1CC=CCC1 (stereo not shown) | -3.93%
10 | COCC(=O)Nc1cc(C)cn(Cc2ccc(F)cc2)c1=O | -12.1%
11 | Cc1cccc(NC(=O)CCS(=O)(=O)c2ccc(Cl)cc2)c1 | 9.09%
12 | Cc1ccccc1-c1nc2sc3c(c2c(=O)n1N)CCCC3 | -0.971%
13 | COC(=O)Cn1cc(/C=C/c2cc[n+](C)cc2)c2ccccc21.[I-] | 5.7%
14 | CCCCCC(=O)Nc1nc(C)c(-c2csc(Nc3cc(Cl)ccc3C)n2)s1 | 31.7%
15 | O=C(C[n+]1ccc(/C=N/O)cc1)NC1CCCCC1.[Cl-] | 11%
16 | Cc1ccc(-c2noc(C3CCN(S(C)(=O)=O)CC3)n2)o1 | -18%
17 | O=C(/C=C/c1cccc([N+](=O)[O-])c1)OCC1CCCO1 (stereo not shown) | 0.83%
18 | CN1CCC(N(C)CC(C)(C)NS(=O)(=O)c2ccccc2)CC1.Cl | -9.97%
19 | C/C(=N\NC(=O)c1nn(C)c(C)c1Br)c1ccc(NC(=O)c2ccoc2C)cc1 | -0.832%
20 | COc1cc(-c2nnc(COc3ccc(Cl)cc3C)o2)cc(OC)c1OC | 0.0728%
21 | Cc1cccc(NC(=O)c2ccc3c(=O)n(CC4CCCO4)c(=S)[nH]c3c2)c1 (stereo not shown) | 1.86%
22 | Cn1c(CC(=O)Nc2ccc(Cl)c(Cl)c2)n[nH]c1=S | 11.1%

Row | Compound | hERG current change (%, negative = inhibition) at 10uM
23 | CC(C)(C)c1cc(/C=N/NC(=O)C[n+]2ccccc2)cc(C(C)(C)C)c1O.[Cl-] | 25.5%
24 | CCO/C=N/Nc1nc(C(F)(F)F)nc2c1cnn2Cc1ccccc1 | 2.56%
25 | COC(=O)c1ccc(CN2C(=O)NC(CC(C)C)C2=O)cc1 (stereo not shown) | -1.68%
26 | COc1cccc(N(CC(=O)N2CCCCCC2)S(C)(=O)=O)c1 | 1.69%
27 | COc1ccc(-c2nn(-c3ccccc3)cc2C(=O)N2CCN(S(=O)(=O)c3ccccc3C#N)CC2)cc1 | -34.5%
28 | O=C(Nc1ccc(F)cc1F)c1cc2nc3c(c(C(F)(F)F)n2n1)CCCC3 | -4.5%
29 | CCCCNC(=O)c1nn2cc(Br)cnc2c1Br | -62.3%
30 | Cc1c(C(=O)Nc2cccnc2Cl)oc2ccccc12 | -0.175%
31 | COc1ccc(C)cc1S(=O)(=O)NCCC1=CCCCC1 | -5.55%
32 | Cc1nc(C#N)c(N/N=C/c2cccc(Cl)c2)o1 | -0.988%
33 | O=C(COc1ccc2ccccc2c1)Nc1cccc2c1C(=O)NC2=O | 9.6%
34 | O=C(CSc1nnc(Cc2cc(=O)[nH]c(=O)[nH]2)n1-c1ccccc1)N1CCCC1 | 15.4%
35 | CCSc1nnc(NC(=O)C2C3C=CC(C3)C2C(=O)O)s1 (stereo not shown) | 7.22%
36 | CCCCOc1ccc(Cc2c(Cl)nc(SC)nc2N2CCOCC2)cc1 | 5.48%
37 | CN(C(=O)c1cc(COc2ccc(F)cc2Cl)on1)C1CCCc2ccccc21 (stereo not shown) | 18.7%
38 | CCOc1ccc(Cl)cc1S(=O)(=O)n1cnc2ccccc21 | -4.02%
39 | COc1ccc(-n2nc([N+](=O)[O-])c(=NCc3ccco3)n2O)cc1 | 6.77%
40 | CC1CCN(C(=O)C(NS(=O)(=O)c2cccc3nsnc23)c2ccccc2)CC1 (stereo not shown) | -69.5%
41 | Cn1nnnc1SCC(=O)N1CCN(S(=O)(=O)c2ccc(Cl)cc2)CC1 | -29.8%
42 | CCCc1[nH]nc2c1C(c1ccc(Br)s1)C(C#N)=C(N)O2 (stereo not shown) | 17.1%
43 | COc1ccc(C(=O)/C=C/Nc2ccc(S(=O)(=O)Nc3nc(C)cc(C)n3)cc2)c(OC)c1 | -11.6%
44 | Cc1noc(C)c1S(=O)(=O)N(C)CC(=O)NCc1ccccc1 | -8.26%

Row | Compound | hERG current change (%, negative = inhibition) at 10uM
45 | CCC(=O)N=c1sc2c(C)cc(C)cc2n1CC(=O)OC | -9.78%
46 | CC1Cc2ccccc2N1C(=O)c1cc2sccc2n1Cc1ccc(F)cc1 (stereo not shown) | 12.3%
47 | O=C(NCCS(=O)(=O)N1CCN(c2ccccc2F)CC1)C1CC(=O)N(c2ccccc2)C1 (stereo not shown) | 22.8%
48 | COc1ccc(CNC(=S)Nc2ccccc2Cl)cc1 | 8.75%
49 | Cc1cc(NC(=O)C(C)SCC(=O)Nc2ccccc2C(C)(C)C)no1 (stereo not shown) | -1.93%
50 | O=C(CN1C(=O)NC2(CCc3ccccc32)C1=O)c1ccc(F)cc1 (stereo not shown) | -57.4%
51 | N#Cc1ccc(C(=O)N(Cc2ccccc2)c2ccccc2)cc1 | -10.5%
52 | O=C(CSc1nccc(=O)[nH]1)Nc1ccc(F)c(Cl)c1 | 16.7%
53 | COc1cc(Nc2c3c(nc4ccccc24)CCCC3)cc(OC)c1OC | -65.9%
54 | CCC1CCCCN1CCCNC(=O)C1CCCN(S(=O)(=O)N2CC(C)CC(C)C2)C1 (stereo not shown) | -20.7%
55 | COc1ccc(NC(=S)N/N=C/c2ccc(F)cc2)cc1OC | 12.4%
56 | COc1ccccc1NC(=O)CCCCCN1C(=O)c2cccc([N+](=O)[O-])c2C1=O | -39.2%
57 | Cc1ccc(C(=O)NNC(=O)Cc2ccccc2)cc1 | -3.32%
58 | CC(C)[C@H](NC(=O)OCc1ccccc1)C(=O)OCc1ccccc1 | -17.6%
59 | c1cncc(C(c2nnnn2C2CCCCC2)N2CCCCC2)c1 (stereo not shown) | -5.85%
60 | CNS(=O)(=O)c1cc(-c2nnc(Nc3ccc(NC(C)=O)cc3)c3ccccc23)ccc1C | 19.2%
61 | COc1ccc(C(=O)OCC(=O)c2ccc(Br)s2)c(OC)c1 | 4.06%
62 | CCN1CCN(C(c2ccc(OC)cc2)c2nnnn2Cc2ccc3c(c2)OCO3)CC1.Cl (stereo not shown) | -45.4%
63 | CNC(=O)NC(=O)COC(=O)c1n[nH]c2ccccc12 | 16.5%
64 | CCOC(=O)C1=C(CCc2ccccc2)NC(=O)NC1c1cccc([N+](=O)[O-])c1 (stereo not shown) | 6.22%
65 | Cc1onc(-c2c(Cl)cccc2Cl)c1-c1nnc(-c2ccc(Cl)cc2)o1 | 12.7%
66 | CCOC(=O)c1ccc(Nc2nc(C)cc(C)c2C#N)cc1 | 5.18%

Row | Compound | hERG current change (%, negative = inhibition) at 10uM
67 | CCOc1nc(Nc2cc(Cl)ccc2OC)nc(OCC)n1 | 19.7%
68 | O=c1cc(-c2ccc(O)cc2)oc2c1ccc1ccccc12 | -3.85%
69 | Cc1ccccc1OC(=O)C1C(c2ccccc2)C(C(=O)O)C1c1ccccc1 (stereo not shown) | -7.68%
70 | CN1N=C(C(C)(C)C)CSC1=Nc1ccc(F)cc1 | -6.7%
71 | CCOC(=O)Nc1ccc(S(=O)(=O)Nc2cc(C)on2)cc1 | 6.84%
72 | Fc1ccc(-c2cc(C(F)(F)F)nc(-n3cncn3)n2)cc1 | -22.1%
73 | CCOC(=O)N1CCN(C(=O)COc2cc(C)c(Cl)c(C)c2)CC1 | 2.21%
74 | CCC(=O)N1CCCn2c1nc1ccccc12 | 5.2%
75 | CC(C)=Nc1ccccc1C1COC(=O)C1=N (stereo not shown) | 0.455%
76 | Cc1cccc(NC(=O)Nc2nnc(-c3ccccc3)o2)c1 | 7.63%
77 | COc1cccc(-n2c(=O)c3cc(OC)c(OC)cc3n(CC(=O)Nc3cc(C)[nH]n3)c2=O)c1 | 8.21%
78 | Cc1ccc(S(=O)(=O)N2CCN(C(=O)CCn3cncn3)CC2)cc1C | 10.2%
79 | CCCCC(CCC(=O)Nc1ccc(C(=O)OC)cc1)C(=O)O (stereo not shown) | 16%
80 | COc1ccc(C(=O)C2CCCN(Cc3ccc(Sc4nncn4C)o3)C2)cc1F (stereo not shown) | -15.4%
81 | CC(=O)Nc1ccc(NC(=O)Nc2cccc(C)c2C)cc1 | 32.5%
82 | COc1cccc(NC(=O)CCC2CCN(C(=O)c3scnc3C)CC2)c1 | -6.41%
83 | Cc1ccnc2nc(C(=O)OCC(=O)NC3CCCC(C)C3C)nn12 (stereo not shown) | -10.4%
84 | CCCn1c(C(=O)c2ccccc2OC)nc2ccccc21 | -47%
85 | CN(CCO)c1nc(NCc2ccccc2)c2cnn(C)c2n1 | 9.03%
86 | COc1ccc(N2CCN(CCCNC(=O)c3ccc(CS(=O)(=O)c4ccc(OC)cc4)o3)CC2)cc1 | -68.9%
87 | COc1cccc(/C=C(/CC(=O)Nc2ccc(N3CCOCC3)cc2)c2nc3ccccc3s2)c1 | 11.9%
88 | COc1cc(C(=O)NNC2=NC(C)(C)Cc3cc(C)c(C)cc32)cc(OC)c1OC | 14.7%
